Data on 70 compounds can be found in PubChem BioAssay AID488969 (Vanderbilt High Throughput Screening Facility, 2010).

Over roughly 110,000 compounds, “z-score” has its median near -0.1; the highest 2% begin near 2. This is one part of the list. The source made the active and inactive calls.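 How the source made its calls: active means z-score in the third read window above 3 or below -3; inactive means the rest.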

For the assay, the target named is Metabotropic glutamate receptor 8 (Rattus norvegicus) (UniProt P70579). The experiment in a line: mGluR8 Gi/Go-coupled signaling modulation – cell-based, rat, thallium flux, HTS, primary screen (AID 488969). The conditions noted are these: HEK293 rat mGluR8, GIRK (G protein-gated inwardly rectifying potassium channel) thallium flux, FluoZin2; at 10 µM; stronger effect = higher value; submaximal glutamate (EC20) added with thallium.
UniProt P70579, sequence (P70579 whole entry, looked up): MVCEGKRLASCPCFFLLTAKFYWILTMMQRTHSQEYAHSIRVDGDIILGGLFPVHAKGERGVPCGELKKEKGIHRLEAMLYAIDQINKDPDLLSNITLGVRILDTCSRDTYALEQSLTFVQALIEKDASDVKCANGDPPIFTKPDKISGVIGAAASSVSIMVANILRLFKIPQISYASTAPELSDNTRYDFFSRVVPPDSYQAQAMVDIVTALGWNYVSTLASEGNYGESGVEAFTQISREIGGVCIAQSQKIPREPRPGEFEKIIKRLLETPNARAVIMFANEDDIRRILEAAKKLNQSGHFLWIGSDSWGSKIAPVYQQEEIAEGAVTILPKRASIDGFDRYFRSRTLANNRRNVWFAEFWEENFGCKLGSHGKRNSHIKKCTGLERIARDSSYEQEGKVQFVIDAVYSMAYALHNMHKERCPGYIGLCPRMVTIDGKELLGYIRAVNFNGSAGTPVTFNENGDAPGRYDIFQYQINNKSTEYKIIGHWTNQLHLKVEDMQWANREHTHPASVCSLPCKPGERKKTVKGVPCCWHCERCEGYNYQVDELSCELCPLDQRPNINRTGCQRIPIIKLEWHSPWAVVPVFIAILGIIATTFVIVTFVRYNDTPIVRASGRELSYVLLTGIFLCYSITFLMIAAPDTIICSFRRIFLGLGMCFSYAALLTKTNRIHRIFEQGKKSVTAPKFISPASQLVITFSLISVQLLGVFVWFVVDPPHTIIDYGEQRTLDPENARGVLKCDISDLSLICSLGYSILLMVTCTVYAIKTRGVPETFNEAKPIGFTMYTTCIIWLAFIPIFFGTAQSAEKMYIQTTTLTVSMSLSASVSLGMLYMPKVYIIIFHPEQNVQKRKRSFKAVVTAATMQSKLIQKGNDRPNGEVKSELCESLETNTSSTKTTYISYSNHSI
On to `COc1ccc(C(=O)Nc2ccc(NC(=O)c3cnccn3)cn2)cc1`, for which the z-score is -0.0686.
`C/C(=N/NS(C)(=O)=O)c1ccc2ccccc2c1` returned a z-score of -0.0951.
As for `O=C(O)CCCN=C1CCCc2ccccc2N1`, the z-score came out at 0.175.
As to `CCOC(=O)C1=C(C)N=c2s/c(=C3\C(=O)Nc4ccccc43)c(=O)n2C1c1ccc2c(c1)OCO2` (stereo not given), the z-score was -0.479.
`CCOC(=O)c1sc2nc(N3CCCC3)c3c(c2c1N)CC(C)(C)OC3` displayed a z-score of -0.218.
The compound `COc1ccc(NC(=O)CCSCCC(=O)Nc2ccc(OC)cc2OC)c(OC)c1` returned a z-score of -0.281.
`CCNS(=O)(=O)c1ccc(CCC(=O)NCCC2=CCCCC2)cc1`: the z-score was -0.0738.
Consider `Cc1cc(N2C(=O)C3CC=CCC3C2=O)cc(C)c1Br` (stereo not given), for which the z-score stood at 0.272.
With `Cc1cc(=O)oc2cc(OCCSc3nnc(-c4ccccc4)o3)ccc12`, the z-score worked out at 0.0557.
In the case of `COC(=O)C1=C(C)N(CC(C)C)C(=O)/C1=C\c1cccs1` it was -0.236; in that of `Cn1c(CSc2nc3ccccc3s2)nnc1SCC(=O)NCc1ccccn1`, 0.0355.
With `CCOC(=O)c1sc2nc(CSc3nc4ccccc4n3CC)[nH]c(=O)c2c1C`, the z-score was determined as 2.68.
In turn, `CCc1ccc(N(C(=O)c2ccoc2C)C(C(=O)NC2CCCC2)c2ccc(OC)cc2)cc1` (stereo not given) registered a z-score of -0.169.
As to `Cc1oc(-c2ccc(Cl)cc2)nc1CN1CCC(C(=O)NCc2cccnc2)CC1`, the z-score is -0.164.
`O=C(/C=C\Nc1cccc(F)c1)c1ccc2c(c1)OCO2` displayed a z-score of 0.21.
The compound `C/C(=N\Nc1ccc(Cl)cc1)c1ccccn1` came in with a z-score of -0.158.
In turn, `CN(CC(=O)Nc1ccccc1N1CCOCC1)S(=O)(=O)c1ccc(Cl)cc1` returned a z-score of -0.106.
As for `CCN(CC)S(=O)(=O)c1ccc(NC2c3ccccc3C(=O)N2Cc2ccc3c(c2)OCO3)cc1` (stereo not given), the figure is 0.00823; as for `COc1c(C)cc(S(=O)(=O)NC2CC(C)(C)NC(C)(C)C2)c(C)c1C`, 0.35; as for `Cc1cccc(NC(=S)NCCC(C)C)c1`, 0.131.
In the case of `O=C(CSc1nc(-c2ccc(F)cc2)cc(C(F)(F)F)n1)Nc1ccc2c(c1)OCO2` it was -0.336; in that of `O=C(Nc1ccccc1)c1ccc(-c2ccc(Br)cc2)o1`, 0.664; in that of `Cc1cc(C)c(S(=O)(=O)Nc2cc(SCC(=O)O)c(O)c3ccccc23)cc1C`, -0.297.
For `CN(C(=O)COC(=O)c1ccc2c(c1)NC(=O)CS2)C1CCS(=O)(=O)C1` (stereo not given), the z-score was -0.091.
In the case of `CCOC(=O)C(Oc1ccc2c(-c3ccc(OC)cc3)cc(=O)oc2c1C)c1ccccc1` (stereo not given) it was -0.275.
On to `O=[N+]([O-])c1ccc(/C=N/n2c(CO)nc3ccccc32)s1`, for which the z-score was -0.353.
Regarding `CC(=O)N1CN(C2CCCC2)Cc2c1sc1c2CCCC1`, the z-score was determined as 1.37.
In the case of `Cc1cc(C)nc(NS(=O)(=O)c2ccc(NC(=O)CN3C(=O)c4ccccc4C3=O)cc2)n1` it was 0.113.
`CCOC(=O)c1ccc(Oc2nc(NC(C)(C)C)nc(N(C)C)n2)cc1` gave a z-score of 0.241.
`CCOC(=O)c1ccc(NC(=O)C2(c3ccc(OC)cc3)CCCC2)cc1` showed a z-score of 0.229.
As for `CCCOC(=O)Nc1cccc(C(C)=O)c1`, the figure is 0.637; as for `COc1ccc2c(c1)OC(O)(C(F)(F)F)CC2=O` (stereo not given), 0.143.
`CSc1c(CC(=O)Nc2ccccc2C(F)(F)F)n(Cc2ccccc2)c2ccccc12` showed a z-score of -0.00769.
Consider `Cc1cc(C)n2c(SCC(=O)Nc3ccccc3)nnc2n1`, for which the z-score was -0.478.
In turn, `Cc1ccc(C(=O)NCCCn2ccnc2)cn1` had a z-score of -0.141.
In the case of `COc1cccc(C(=O)N/N=C2/SCC(=O)N2CCc2ccc(OC)c(OC)c2)c1` it was 0.21; in that of `COC(=O)CSc1nc2ccccc2o1`, -0.541; in that of `Cc1cc(C(=O)CSc2nnnn2-c2ccccc2)c(C)n1CCc1ccccc1`, 0.0595.
`O=C(NCC1CCCO1)c1nn2cccnc2c1Cl` (stereo not given) had a z-score of 0.098.
Regarding `COc1ccccc1-n1nnnc1SCC(=O)NC1CCCC1`, the z-score is -0.293.
As to `O=C(O)c1cc(-c2cccc(Cl)c2)nc2nc(N3CCCCC3)sc12`, the z-score is -2.04.
In the case of `O=C(c1cc2ccccc2oc1=O)N1CCN(C(=O)C2CCCO2)CC1` (stereo not given) it was -0.35; in that of `COC(=O)c1sccc1NC(=O)c1cc(OC)c(OC)c(OC)c1`, -0.289; in that of `CC(=O)N1CCN(Cc2nc3cc(NC(=O)C4CCCCC4)ccc3n2C)CC1`, -0.151.
As for `O=C(Cc1cccs1)NCc1cccs1`, the figure is 0.383; as for `Fc1cc(F)c2nc(N3CCOCC3)sc2c1`, -0.0475.
`CC1=NN(C(=O)CCc2ccccc2O)C(O)(C(F)(F)F)C1` (stereo not given) came in with a z-score of -0.0235.
`CC1=CCC2C(=O)N(c3ccc(C(=O)N4CCCCCC4)cc3)C(=O)C2C1` (stereo not given) showed a z-score of -0.103.
Take `O=C(Cn1ccc([N+](=O)[O-])n1)NCc1cccs1`: the z-score is -0.494.
With `Cc1cc(NC(=O)CSc2nnc(-c3cccs3)n2N)no1`, the z-score is -0.647.
`O=C(c1ccco1)N1C(=O)c2cccc3c(S(=O)(=O)N4CCCC4)ccc1c23` returned a z-score of 0.0162.
For the compound `Cc1cc(C)n(-c2nnc(C)n2/N=C/c2ccccc2O)n1`, the z-score was determined as 0.187.
In the case of `CCC(=O)Oc1oc(-c2ccccc2)nc1C=Nc1ccccc1OC` it was active: -3.23; in that of `CC1(C)Cc2ccccc2-c2nnc(SCC(=O)Nc3ccc4c(c3)OCO4)n21`, 1.08; in that of `Cc1ccc(N(CC(=O)NCC2CCCO2)S(C)(=O)=O)cc1Cl` (stereo not given), 0.409.
`Cc1ccc(C2NC(c3ccc(C)cc3)C(C)C(=NO)C2C)cc1` (stereo not given) registered a z-score of -0.376.
Regarding `O=C(c1ccc(NC(=O)C2(c3ccccc3)CCOCC2)cc1)N1CCOCC1`, the z-score is -0.149.
For `COc1ccccc1N1CCN(C2CCCC(C)C2)CC1` (stereo not given), the z-score was found to be 0.0333.
For `O=C(c1ccccc1)c1cnc(-c2ccc(Cl)cc2)s1`, the z-score was -0.16.
On to `COc1cccc(CN=CC2=C(O)CC(C)(C)CC2=O)c1OC`, for which the z-score was -0.218.
As to `CCCCN(CCCC)S(=O)(=O)c1ccc(NC(=O)c2cccs2)cc1`, the z-score was 0.572.
For `O=C(COc1ccc2c(C(F)(F)F)cc(=O)oc2c1)Nc1ccc(N2CCOCC2)cc1`, the z-score was found to be 0.563.
Compound `CCn1c(=O)cc(OCC(=O)NCCC(C)C)c2ccccc21` yielded a z-score of 0.045.
On to `COC(=O)c1cc(NS(=O)(=O)c2ccc(OC)c(OC)c2)ccc1Cl`, for which the z-score is 0.211.
In the case of `Cc1ccc(C2CC(C(F)(F)F)n3ncc(C(N)=O)c3N2)cc1` (stereo not given), the z-score was -0.048.
`O=C(CN1CCN(S(=O)(=O)c2ccc(Cl)cc2)CC1)Nc1ccc2c(c1)OCCO2` returned a z-score of -1.19.
Take `Cc1nn(Cc2cccc(C(=O)N3N=C(C(F)F)CC3(O)C(F)F)c2)c(C)c1[N+](=O)[O-]` (stereo not given): the z-score was -0.0565.
In turn, `O=C(O)c1ccccc1-c1ccccc1C(=O)Nc1ccccc1` displayed a z-score of -0.395.
In the case of `CCn1c2ccccc2c2cc(NC(=O)COC(=O)c3cc(S(=O)(=O)N4CCCCC4)ccc3Cl)ccc21` it was -0.171; in that of `Cn1c(=O)c2c(nc(NCc3ccc4c(c3)OCO4)n2Cc2ccccc2F)n(C)c1=O`, -1.19.
